The list shows a part of the results. Sequences were assembled here from the parent chain. Inactive controls read about 0.05.
B1: TEV protease; numbered along this chain (parent)
chain: MGESLFKGPRDYNPISSSICHLTNESDGHTTSLYGIGFGPFIITNKHLFRRNNGTLVVQSLHGVFKVKDTTTLQQHLVDGRDMIIIRMPKDFPPFPQKLKFREPQREERICLVTTNFQTKSMSSMVSDTSCTFPSGDGIFWKHWIQTKDGQCGSPLVSTRDGFIVGIHSASNFTNTNNYFTSVPKNFMELLTNQEAQQWVSGWRLNADSVLWGGHKVFMVKPEEPFQPVKEATQL

Variants of: B1
Assay: raw area under fraction-flipped curve 0-4 h after induction (AUC4h, not background-subtracted), DNA-recorder readout of cleavage of the substrate (dimensionless); higher = more cleavage of the substrate by the protease variant
Details: temperature: 34 °C; time window: 0-4 h after rhamnose induction
Protocol: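 In vivo DNA recorder in E. coli TOP10(DE3) ΔrhaA at 34 °C. Each TEVp single-site mutant (parent TEVp 0) is paired with a single-site variant of the 7-mer TEVs (canonical ENLYFQ|S). The substrate sits between flexible linkers in a Bxb1-sfGFP-TEVs-SsrA fusion, so cleavage stabilises Bxb1 and speeds flipping of a recombination array, read by NGS. The value is the raw area under the fraction-flipped curve over 0-4 h after rhamnose induction (AUC4h), with ≥20 reads per time point. It is not background-subtracted; inactive controls average about 0.047.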
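Further: Bxb1 expression induced with 0.2% (w/v) L-rhamnose at OD600 near 0.5, cultures sampled hourly, flipped fraction per protease–substrate barcode pair counted by paired-end Illumina sequencing.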

Variant | area with substrate ENLAFQS | area with substrate ENLCFQS | area with substrate ENLDFQS | area with substrate ENLEFQS | area with substrate ENLFFQS | area with substrate ENLIFQS | area with substrate ENLKFQS | area with substrate ENLLFQS | area with substrate ENLNFQS | area with substrate ENLPFQS | area with substrate ENLSFQS | area with substrate ENLVFQS | area with substrate ENLWFQS | area with substrate ENLHFQS | area with substrate ENLQFQS | area with substrate ENLRFQS | area with substrate ENLTFQS | area with substrate ENLGFQS | area with substrate ENLMFQS
T114G | 0.0627 | 0.078 | 0.0901 | 0.0686 | 0.122 | 0.117 | 0.0615 | 0.0607 | 0.0538 | 0.0814 | 0.0608 | 0.0762 | 0.0674 | – | – | – | – | – | –
M125F | 0.0737 | – | – | – | 0.0715 | 0.0353 | 0.0658 | 0.0747 | 0.0641 | – | – | – | – | 0.0589 | 0.0697 | 0.0772 | – | – | –
V58C | 0.0632 | 0.0649 | 0.0678 | – | 0.0819 | 0.0826 | – | 0.0537 | – | 0.0614 | 0.0621 | 0.0627 | – | 0.0729 | – | 0.0985 | – | – | –
V58A | 0.0594 | – | – | – | – | – | – | – | – | – | 0.0526 | – | – | – | 0.0417 | 0.0794 | – | – | –
K98H | 0.0573 | – | 0.0762 | 0.0673 | 0.0945 | 0.117 | 0.0768 | – | 0.0629 | 0.0642 | 0.0708 | 0.0954 | 0.0675 | 0.0659 | – | 0.0835 | – | – | –
S123L | 0.0825 | 0.0911 | 0.0673 | 0.0563 | 0.087 | – | 0.0732 | 0.0745 | 0.0557 | 0.0711 | 0.0678 | – | – | 0.0707 | 0.0638 | 0.0897 | – | – | –
D91G | 0.0639 | – | 0.0534 | 0.0658 | 0.0845 | 0.0867 | 0.069 | 0.0785 | 0.0672 | – | 0.0607 | – | 0.0658 | 0.0776 | 0.0843 | 0.0626 | 0.0696 | – | –
T119N | 0.0695 | – | 0.0571 | 0.0821 | 0.0958 | – | 0.082 | – | – | 0.0516 | 0.0358 | 0.0985 | 0.0764 | – | 0.0744 | – | – | – | –
Q75Y | 0.0448 | – | 0.0623 | 0.0634 | 0.0725 | 0.0647 | 0.0453 | 0.0558 | 0.0457 | 0.0597 | 0.0678 | – | 0.0544 | 0.0522 | 0.0601 | 0.0613 | – | 0.0548 | 0.0648
Q75S | 0.0763 | – | 0.0634 | – | 0.0923 | – | 0.0702 | – | 0.0594 | – | – | 0.0726 | – | 0.07 | 0.0638 | – | 0.0686 | – | 0.0707
R81Q | 0.0582 | 0.0369 | 0.0774 | – | 0.0732 | – | – | 0.0715 | 0.0699 | 0.0647 | 0.0468 | – | – | – | – | – | – | – | –
R87M | 0.0576 | 0.0895 | 0.046 | – | – | 0.0957 | – | 0.0637 | – | – | – | – | 0.0735 | 0.0566 | 0.0571 | 0.0758 | – | – | –
R87E | 0.0588 | 0.0761 | – | – | – | – | 0.0645 | – | 0.0747 | – | – | – | – | 0.0543 | 0.0692 | – | – | – | –
D69V | 0.0825 | 0.0647 | 0.0666 | – | 0.0669 | 0.0749 | 0.0616 | 0.0528 | 0.0657 | 0.055 | – | – | 0.0582 | 0.0614 | – | 0.0692 | – | – | –
K68S | 0.061 | – | – | – | 0.0803 | – | 0.0795 | 0.0628 | 0.0818 | 0.0617 | 0.0726 | – | – | – | – | 0.0698 | 0.0738 | – | –
Q97M | 0.0663 | 0.0852 | 0.0599 | 0.0605 | 0.083 | 0.101 | 0.0752 | 0.0661 | 0.0593 | 0.0654 | 0.0674 | – | 0.0739 | 0.063 | 0.0535 | – | – | 0.0457 | 0.0738

Variant | area with substrate ENLAFQS | area with substrate ENLCFQS | area with substrate ENLDFQS | area with substrate ENLEFQS | area with substrate ENLFFQS | area with substrate ENLIFQS | area with substrate ENLKFQS | area with substrate ENLLFQS | area with substrate ENLNFQS | area with substrate ENLPFQS | area with substrate ENLSFQS | area with substrate ENLVFQS | area with substrate ENLWFQS | area with substrate ENLHFQS | area with substrate ENLQFQS | area with substrate ENLRFQS | area with substrate ENLTFQS | area with substrate ENLGFQS | area with substrate ENLMFQS
R109D | 0.0687 | 0.0686 | 0.0594 | – | – | 0.0813 | 0.0805 | – | – | 0.0382 | 0.0542 | – | – | – | – | 0.0698 | – | 0.0687 | –
S60N | 0.07 | – | 0.0631 | – | 0.048 | 0.072 | 0.0726 | – | 0.0671 | 0.056 | 0.0643 | – | 0.0522 | 0.0727 | – | 0.0668 | – | 0.0354 | –
I85N | 0.0584 | 0.062 | 0.0467 | 0.0418 | 0.0408 | – | 0.0479 | 0.0635 | 0.0531 | – | 0.0521 | – | – | – | 0.0364 | 0.0418 | – | – | –
I85E | 0.0607 | 0.0771 | – | 0.0564 | 0.0546 | 0.0541 | 0.0509 | – | 0.0479 | – | 0.038 | 0.0777 | 0.0573 | 0.0502 | – | – | 0.0717 | 0.0306 | –
I85S | 0.0445 | – | 0.0603 | 0.0497 | 0.0571 | 0.0528 | – | 0.0668 | – | 0.0449 | 0.0484 | 0.0542 | – | – | 0.0386 | – | 0.0609 | 0.0508 | 0.0572
Q74L | 0.0723 | 0.0682 | 0.0675 | 0.0591 | – | 0.0761 | – | 0.0058 | – | 0.101 | – | – | – | 0.0837 | – | – | – | – | –
M83H | 0.049 | 0.0532 | 0.0584 | 0.0638 | 0.0558 | – | 0.0555 | 0.0566 | 0.0576 | 0.0525 | 0.0548 | – | 0.0342 | 0.0519 | – | 0.0594 | – | 0.067 | –
F101P | 0.0355 | – | – | 0.0437 | – | – | – | 0.0499 | 0.0512 | 0.0706 | 0.0575 | – | 0.0409 | 0.0739 | – | 0.0519 | – | – | –
F101G | 0.06 | – | – | – | – | – | 0.0717 | – | – | 0.0624 | 0.0436 | – | 0.062 | 0.0532 | – | – | – | 0.0703 | –
S127N | 0.0637 | 0.0845 | 0.0594 | 0.0599 | 0.0951 | 0.0754 | 0.0686 | – | 0.0765 | – | 0.0619 | – | 0.0848 | 0.0873 | – | – | – | – | –
P89I | 0.0513 | – | – | 0.0586 | 0.055 | – | 0.0499 | – | – | – | 0.0522 | – | 0.0414 | 0.0567 | 0.0479 | 0.0536 | – | – | –
P89K | 0.0618 | – | – | – | – | 0.078 | 0.0588 | – | 0.049 | – | – | – | 0.0572 | 0.0507 | – | – | – | – | –
P89R | 0.0573 | 0.0567 | 0.0519 | 0.0691 | 0.0807 | – | 0.0639 | 0.0456 | 0.0606 | – | – | 0.0571 | – | 0.0622 | – | 0.0728 | 0.0403 | – | –
P89G | 0.0601 | – | 0.0521 | 0.0597 | 0.0604 | – | 0.0712 | – | 0.0586 | 0.0474 | 0.0722 | – | 0.0519 | 0.0666 | 0.0701 | 0.0567 | – | – | –
Q59S | 0.0631 | – | 0.0942 | – | 0.0983 | 0.122 | 0.0743 | 0.025 | – | 0.0498 | 0.0719 | 0.0659 | – | 0.0719 | – | 0.078 | – | 0.0428 | –
Q59C | 0.0824 | – | 0.0625 | – | 0.0844 | – | 0.066 | 0.0757 | 0.0627 | 0.0571 | – | – | – | 0.0697 | 0.0936 | – | – | – | 0.0611
